# Measured values from article PMC6265451.
# Protein sequences, listed by entry. Tags and fused reporters are not part of them.
# UniProt P29468: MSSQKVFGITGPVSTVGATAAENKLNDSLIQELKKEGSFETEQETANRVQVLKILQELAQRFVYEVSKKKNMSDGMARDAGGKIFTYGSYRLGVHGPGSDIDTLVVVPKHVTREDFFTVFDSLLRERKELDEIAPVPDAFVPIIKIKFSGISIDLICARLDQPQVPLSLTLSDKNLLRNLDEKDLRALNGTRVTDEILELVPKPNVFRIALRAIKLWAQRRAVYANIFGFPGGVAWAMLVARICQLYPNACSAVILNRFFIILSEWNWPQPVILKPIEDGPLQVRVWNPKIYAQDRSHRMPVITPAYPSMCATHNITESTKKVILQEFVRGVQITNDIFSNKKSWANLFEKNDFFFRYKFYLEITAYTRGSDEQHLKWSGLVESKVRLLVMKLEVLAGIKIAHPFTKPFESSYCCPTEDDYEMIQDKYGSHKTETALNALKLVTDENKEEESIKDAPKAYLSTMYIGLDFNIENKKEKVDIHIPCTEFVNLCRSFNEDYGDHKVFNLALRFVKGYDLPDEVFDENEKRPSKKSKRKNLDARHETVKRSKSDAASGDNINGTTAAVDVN
# UniProt P32598: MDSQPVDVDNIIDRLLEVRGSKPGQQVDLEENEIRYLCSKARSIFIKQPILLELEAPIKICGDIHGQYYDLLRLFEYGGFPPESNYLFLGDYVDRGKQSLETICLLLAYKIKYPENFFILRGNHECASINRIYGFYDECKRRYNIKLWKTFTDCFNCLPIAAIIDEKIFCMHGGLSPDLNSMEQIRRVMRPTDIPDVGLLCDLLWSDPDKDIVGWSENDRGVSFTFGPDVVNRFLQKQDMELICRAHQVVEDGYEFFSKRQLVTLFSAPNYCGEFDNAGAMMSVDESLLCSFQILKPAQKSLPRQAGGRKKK
# UniProt P53538: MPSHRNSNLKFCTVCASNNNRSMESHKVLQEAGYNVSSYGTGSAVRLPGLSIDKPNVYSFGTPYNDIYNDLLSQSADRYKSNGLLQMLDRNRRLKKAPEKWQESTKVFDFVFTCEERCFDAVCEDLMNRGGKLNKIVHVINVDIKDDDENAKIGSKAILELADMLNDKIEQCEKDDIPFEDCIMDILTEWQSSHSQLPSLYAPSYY
# Results are given in words; binding and its absence hold for the method and conditions named. Some results given as binding are weak or reduced against the parent protein; the word gives no strength.
# Key:
# [1] = target: T1, Syc1-TAPS (S. cerevisiae) (UniProt Q08553); assay: SEC; TAPS affinity purification from tagged yeast strain, then Superose 6 PC 3.2/30 in 20 mM HEPES pH 7.9, 150 mM KCl, 3 mM DTT, 0.5 mM Mg(OAc)2, 0.5 mM MnCl2; fractions on Coomassie-stained SDS-PAGE
# T1 sequence: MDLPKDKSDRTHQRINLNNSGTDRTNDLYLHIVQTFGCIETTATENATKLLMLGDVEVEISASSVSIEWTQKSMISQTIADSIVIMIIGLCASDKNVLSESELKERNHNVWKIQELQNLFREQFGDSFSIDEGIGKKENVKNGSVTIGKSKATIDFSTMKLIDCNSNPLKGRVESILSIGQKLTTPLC
# [2] = target: T2, Mpe1-TAPS (S. cerevisiae) (UniProt P35728); assay: as above
# T2 sequence: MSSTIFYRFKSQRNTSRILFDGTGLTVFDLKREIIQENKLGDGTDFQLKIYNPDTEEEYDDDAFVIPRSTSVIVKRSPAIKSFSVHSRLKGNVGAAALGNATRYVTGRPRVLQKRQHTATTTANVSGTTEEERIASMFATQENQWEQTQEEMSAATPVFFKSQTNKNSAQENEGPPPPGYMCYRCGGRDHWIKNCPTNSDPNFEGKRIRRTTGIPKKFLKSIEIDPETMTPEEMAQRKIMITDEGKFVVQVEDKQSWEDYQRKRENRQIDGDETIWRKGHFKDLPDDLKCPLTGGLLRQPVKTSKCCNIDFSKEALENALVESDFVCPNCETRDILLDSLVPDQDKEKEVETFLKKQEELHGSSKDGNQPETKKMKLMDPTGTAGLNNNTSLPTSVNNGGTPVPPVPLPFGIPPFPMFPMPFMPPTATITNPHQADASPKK
# [3] = target: Pap1-TAPS (S. cerevisiae) (UniProt P29468); assay: as above
# [4] = target: T3, Ref2-TAPS (S. cerevisiae) (UniProt P42073); assay: as above
# T3 sequence: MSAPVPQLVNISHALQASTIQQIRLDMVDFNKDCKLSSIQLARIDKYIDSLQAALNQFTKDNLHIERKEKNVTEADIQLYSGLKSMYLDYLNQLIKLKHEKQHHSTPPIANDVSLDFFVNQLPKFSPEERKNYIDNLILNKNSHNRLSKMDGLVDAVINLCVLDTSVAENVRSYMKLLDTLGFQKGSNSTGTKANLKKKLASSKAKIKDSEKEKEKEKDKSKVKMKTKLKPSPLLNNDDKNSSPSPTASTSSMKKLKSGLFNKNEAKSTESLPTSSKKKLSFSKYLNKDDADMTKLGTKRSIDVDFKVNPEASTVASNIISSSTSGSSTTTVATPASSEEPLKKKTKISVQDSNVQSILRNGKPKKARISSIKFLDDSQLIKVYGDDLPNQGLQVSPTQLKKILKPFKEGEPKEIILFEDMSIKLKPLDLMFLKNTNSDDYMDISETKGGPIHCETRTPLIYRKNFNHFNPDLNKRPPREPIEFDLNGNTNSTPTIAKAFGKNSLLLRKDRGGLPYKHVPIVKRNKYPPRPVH
# [5] = target: T4, Pta1-TAPS (S. cerevisiae) (UniProt Q01329); assay: as above
# T4 sequence: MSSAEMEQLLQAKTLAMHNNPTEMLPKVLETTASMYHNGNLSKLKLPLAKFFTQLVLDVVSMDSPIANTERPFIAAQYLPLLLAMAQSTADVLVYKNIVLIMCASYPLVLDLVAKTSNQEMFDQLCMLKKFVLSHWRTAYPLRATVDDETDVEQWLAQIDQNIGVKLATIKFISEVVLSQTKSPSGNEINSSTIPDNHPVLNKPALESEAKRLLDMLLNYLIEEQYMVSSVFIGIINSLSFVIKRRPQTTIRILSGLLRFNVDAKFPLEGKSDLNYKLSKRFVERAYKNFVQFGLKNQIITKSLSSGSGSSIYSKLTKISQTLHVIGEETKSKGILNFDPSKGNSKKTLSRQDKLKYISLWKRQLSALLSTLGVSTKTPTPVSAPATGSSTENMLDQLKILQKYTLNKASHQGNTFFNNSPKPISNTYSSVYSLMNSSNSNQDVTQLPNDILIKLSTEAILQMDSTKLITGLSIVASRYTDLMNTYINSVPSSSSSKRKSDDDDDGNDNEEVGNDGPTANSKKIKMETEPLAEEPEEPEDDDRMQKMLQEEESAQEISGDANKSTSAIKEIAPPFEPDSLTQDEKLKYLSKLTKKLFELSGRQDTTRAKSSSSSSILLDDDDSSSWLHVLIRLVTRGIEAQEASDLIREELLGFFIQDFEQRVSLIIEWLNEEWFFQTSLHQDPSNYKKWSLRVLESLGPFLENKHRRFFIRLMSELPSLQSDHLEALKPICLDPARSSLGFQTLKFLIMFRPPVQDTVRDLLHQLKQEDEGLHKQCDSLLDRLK
# [6] = target: T3, Ref2-TAPS (S. cerevisiae); assay: anion exchange chromatography; TAPS affinity purification from tagged yeast strain (Ref2-tagged; Pta1-tagged with SYC1 deleted), then Mono Q 5/50 GL in 20 mM HEPES pH 7.9, 150 mM KCl, 3 mM DTT, 0.5 mM Mg(OAc)2; APT eluted at 260 mM KCl and CPF at 400 mM KCl
# [7] = target: T4, Pta1-TAPS (S. cerevisiae); assay: as above
binding [1],binding [2],binding [3],binding [4],binding [5],binding [6],binding [7],Substance
binds,binds,binds,binds,binds,binds,binds,Glc7 (from UniProt P32598 1-312) (enzyme)
no binding,–,–,binds,binds,binds,binds,Pap1 (from UniProt P29468 1-568) (enzyme)
binds,binds,binds,binds,binds,binds,binds,Ssu72 (from UniProt P53538 1-206) (enzyme)
